Measurements taken from patent US4876248A, “Anti-inflammatory products derived from methylene-diphosphonic acid, and process for their preparation” (priority 1982, dated 1989).

The compounds below were run on secretion of neutral proteinases by stimulated chondrocytes (assay: Inhibition of secretion of neutral proteinases by stimulated chondrocytes in culture (in vitro study)). Conditions: 3 days' culture with 20% of medium containing chondrocyte stimulating factor; concentration which avoids cytotoxicity or insolubility.
Protocol: The in vitro study is based on the fact that chondrocytes in a culture secrete neutral proteinases after stimulation by a factor synthesized by peritoneal macrophages or by the mononuclear cells of the blood.
The following procedure was used.
The chondrocytes are isolated from cartilage from the nasal septum of the calf or from articular cartilage of the rabbit, by enzymatic digestion, and are cultured in DMEN medium containing 10% of calf serum, to a density of 5×10^15 cells per 10 cm Petri dish. The culture medium is renewed every 48 hours.
After one week's culture, the cells are sub-cultured by treatment with trypsin EDTA. The cells are then again cultured in DMEM medium containing 10% of fetal calf serum to a density of 2×10^5 cells per 16 mm dish. Confluence occurs after 3 days' culture.
The peritoneal macrophages of the rabbit are abtained by the method described by DESHMUKH-PHADKE et al., Biochemical Biophysical Research Communication, 85, 490-6, (1978).
The mononuclear cells of human blood are prepared and cultured in accordance with the procedure of DAYER et al. [The Journal of Immunology, 124, 1712-1720 (1980)].
After culture, the medium containing the "chondrocyte stimulating factor" is recovered, filtered on an 0.22 μ Millipore filter and frozen at -20° C.
At the time of confluence, the culture medium of the chondrocytes is replaced by DMEM medium containing 1% of fetal calf serum, mixed with 20% of medium containing the chondrocyte stimulating factor.
The products to be tested are introduced into the culture medium at the same time as the stimulation medium; at a concentration which avoids cytotoxicity of the product or insolubility of the product. After 3 days' culture, the medium is recovered in order to determine its content of neutral proteinases.
The procedure of VAES et al. Biochemical Journal, 172, 261, (1978) is used.
They are expressed as a percentage inhibition of the secretion of neutral proteinases by stimulated chondrocytes treated with the products to be studied, relative to that of stimulated chondrocytes not treated with the products.
For CSCCCC(P(=O)(O)O)P(=O)(O)O [SR 41 177, Tertiary-butylammonium 4-(methylthio)-butylidene-1,1-diphosphonate], the “Chondrocyte in culture % inhibition (inhibition of the secretion of neutral proteinases by stimulated chondrocytes relative to stimulated untreated chondrocytes)” value was 69 ± 4%.
With O=P(O)(O)C(SCCCc1ccccc1)P(=O)(O)O [SR 41 908] the “Chondrocyte in culture % inhibition (inhibition of the secretion of neutral proteinases by stimulated chondrocytes relative to stimulated untreated chondrocytes)” value was 82 ± 2%.
CCCCCCCCCCCCCCCCSC(P(=O)(O)O)P(=O)(O)O [SR 41 453, Monoammonium hexadecylthiomethylene-diphosphonate] was tested, and the “Chondrocyte in culture % inhibition (inhibition of the secretion of neutral proteinases by stimulated chondrocytes relative to stimulated untreated chondrocytes)” value was 40 ± 2%.
CN(C)CCSC(P(=O)(O)O)P(=O)(O)O [SR 41 344] was tested, and the “Chondrocyte in culture % inhibition (inhibition of the secretion of neutral proteinases by stimulated chondrocytes relative to stimulated untreated chondrocytes)” value was 31 ± 6%.
CCCCCCCCCCSC(P(=O)(O)O)P(=O)(O)O [SR 41 457, decylthiomethylene-diphosphonic acid] was tested, and the “Chondrocyte in culture % inhibition (inhibition of the secretion of neutral proteinases by stimulated chondrocytes relative to stimulated untreated chondrocytes)” value was 95 ± 3%.
In the case of O=P(O)(O)C(Sc1ccc(Cl)cc1)P(=O)(O)O [SR 41 319, Di-(tertiarybutylamine) salt of (4-chlorophenyl)thiomethylene-diphosphonicacid], the “Chondrocyte in culture % inhibition (inhibition of the secretion of neutral proteinases by stimulated chondrocytes relative to stimulated untreated chondrocytes)” value is reported as 85 ± 1%.
For O=P(O)(O)C(Sc1ccccn1)P(=O)(O)O [SR 41 179], the “Chondrocyte in culture % inhibition (inhibition of the secretion of neutral proteinases by stimulated chondrocytes relative to stimulated untreated chondrocytes)” value was 75 ± 7%.
In the case of O=P(O)(O)C(Sc1cccc(C(F)(F)F)c1)P(=O)(O)O [SR 42 249], the “Chondrocyte in culture % inhibition (inhibition of the secretion of neutral proteinases by stimulated chondrocytes relative to stimulated untreated chondrocytes)” value is reported as 92 ± 4%.
With O=P(O)(O)C(Sc1nc2ccccc2[nH]1)P(=O)(O)O [SR 41 263] the “Chondrocyte in culture % inhibition (inhibition of the secretion of neutral proteinases by stimulated chondrocytes relative to stimulated untreated chondrocytes)” value was 90 ± 1%.
O=P(O)(O)C(CCCSc1ccccc1)P(=O)(O)O [SR 41 342, Di-(tertiarybutylamine salt) of 4-phenylthio-butylidene-1,1-diphosphonic acid] was tested, and the “Chondrocyte in culture % inhibition (inhibition of the secretion of neutral proteinases by stimulated chondrocytes relative to stimulated untreated chondrocytes)” value was 99 ± 1%.
For O=P(O)(O)C(Sc1ccccc1)P(=O)(O)O [SR 41 482], the “Chondrocyte in culture % inhibition (inhibition of the secretion of neutral proteinases by stimulated chondrocytes relative to stimulated untreated chondrocytes)” value was 83 ± 6%.
In the case of COP(=O)(OC)C(Sc1nc2ccccc2o1)P(=O)(OC)OC [SR 41 625, Tetramethyl benzoxazol-2-yl-thiomethylene-diphosphonate], the “Chondrocyte in culture % inhibition (inhibition of the secretion of neutral proteinases by stimulated chondrocytes relative to stimulated untreated chondrocytes)” value is reported as 92 ± 0%.
CCN(CC)C(=S)SC(P(=O)(O)O)P(=O)(O)O [SR 41 960] was tested, and the “Chondrocyte in culture % inhibition (inhibition of the secretion of neutral proteinases by stimulated chondrocytes relative to stimulated untreated chondrocytes)” value was 55 ± 4%.
For O=P(O)(O)C(Sc1cccs1)P(=O)(O)O [SR 41 549, thien-2-yl-thiomethylene-diphosphonic acid], the “Chondrocyte in culture % inhibition (inhibition of the secretion of neutral proteinases by stimulated chondrocytes relative to stimulated untreated chondrocytes)” value was 58 ± 4%.
In the case of O=P(O)(O)C(CCCCCCSc1ccc(Cl)cc1)P(=O)(O)O [SR 41 959], the “Chondrocyte in culture % inhibition (inhibition of the secretion of neutral proteinases by stimulated chondrocytes relative to stimulated untreated chondrocytes)” value is reported as 79 ± 2%.
O=P(O)(O)C(CCCCSc1ccccn1)P(=O)(O)O [SR 42 099, 5-(pyrid-2-yl-thio)-pentylidene-1,1-diphosphonic acid] was tested, and the “Chondrocyte in culture % inhibition (inhibition of the secretion of neutral proteinases by stimulated chondrocytes relative to stimulated untreated chondrocytes)” value was 50 ± 5%.
O=P(O)(O)C(Sc1nc2cc(Cl)ccc2[nH]1)P(=O)(O)O [SR 41 480] was tested, and the “Chondrocyte in culture % inhibition (inhibition of the secretion of neutral proteinases by stimulated chondrocytes relative to stimulated untreated chondrocytes)” value was 56 ± 9%.
With CCCCCCCCSC(P(=O)(O)O)P(=O)(O)O [SR 41 421] the “Chondrocyte in culture % inhibition (inhibition of the secretion of neutral proteinases by stimulated chondrocytes relative to stimulated untreated chondrocytes)” value was 97 ± 2%.
With CC(C)SC(P(=O)(O)O)P(=O)(O)O [SR 41 100] the “Chondrocyte in culture % inhibition (inhibition of the secretion of neutral proteinases by stimulated chondrocytes relative to stimulated untreated chondrocytes)” value was 20 ± 1%.
O=P(O)(O)C(Sc1ccccc1Cl)P(=O)(O)O [SR 41 689] was tested, and the “Chondrocyte in culture % inhibition (inhibition of the secretion of neutral proteinases by stimulated chondrocytes relative to stimulated untreated chondrocytes)” value was 90 ± 3%.
For Nc1ccccc1SC(P(=O)(O)O)P(=O)(O)O [SR 41 388], the “Chondrocyte in culture % inhibition (inhibition of the secretion of neutral proteinases by stimulated chondrocytes relative to stimulated untreated chondrocytes)” value was 90 ± 1%.
Cc1ccc(SC(P(=O)(O)O)P(=O)(O)O)cc1 [SR 41 456] was tested, and the “Chondrocyte in culture % inhibition (inhibition of the secretion of neutral proteinases by stimulated chondrocytes relative to stimulated untreated chondrocytes)” value was 98 ± 2%.
For CSC(P(=O)(O)O)P(=O)(O)O [SR 41 036, Tri-(tertiary butylamine) salt of methylthio-methylene-diphosphonic acid], the “Chondrocyte in culture % inhibition (inhibition of the secretion of neutral proteinases by stimulated chondrocytes relative to stimulated untreated chondrocytes)” value was 72 ± 8%.
O=P(O)(O)C(CCCCS)P(=O)(O)O [SR 41 527, Di-(tertiarybutylalmine) salt of 5-mercapto-pentylidene-1,1-diphosphonic acid] was tested, and the “Chondrocyte in culture % inhibition (inhibition of the secretion of neutral proteinases by stimulated chondrocytes relative to stimulated untreated chondrocytes)” value was 54 ± 3%.
For O=P(O)(O)C(Sc1ncccn1)P(=O)(O)O [SR 41 264], the “Chondrocyte in culture % inhibition (inhibition of the secretion of neutral proteinases by stimulated chondrocytes relative to stimulated untreated chondrocytes)” value was 50 ± 10%.
O=P(O)(O)C(Sc1nc2ccccc2s1)P(=O)(O)O [SR 41 481, Tri-(tertiarybutylamine) salt of benzothiazol-2-yl-thiomethylene-diphosphonic acid] was tested, and the “Chondrocyte in culture % inhibition (inhibition of the secretion of neutral proteinases by stimulated chondrocytes relative to stimulated untreated chondrocytes)” value was 74 ± 9%.
For NCCSC(P(=O)(O)O)P(=O)(O)O [SR 41 266], the “Chondrocyte in culture % inhibition (inhibition of the secretion of neutral proteinases by stimulated chondrocytes relative to stimulated untreated chondrocytes)” value was 68 ± 8%.

Counter-ions that a name gives are not always drawn.
